The target of data set [1] is T1, REV7^E35A-SHLD3(1–82) (human, UniProt Q9UI95; Q6ZNX1 1-82, E35A).
T1 construct: REV7 (MAD2B, MAD2L2), human, full length; SHLD3, human, residues 1-82; cloned without His-tag; Homogeneous C-REV7-SHLD3(1-82) heterodimer by SEC-MALS; also called E35A-1–82; source: E. coli BL21(DE3), co-expressed (pETduet), purified (Ni-IDA, SEC)
The data set can be described thus: ITC; in the context of MBP-SHLD2(1-60) (Supplementary Fig. 5a, b). The conditions noted are these: both partners purified. For orientation: ITC needs no label: the signal is the heat of the interaction.

Data set [2] concerns the target T2, REV7^K44A-SHLD3(1–82)^FIPWFP/AIAAAA (human, UniProt Q9UI95; Q6ZNX1 1-82, K44A | FIPWFP/AIAAAA).
T2 construct: REV7 (MAD2B, MAD2L2), human, full length; SHLD3, human, residues 1-82; the FXPWFP motif stands at 38-43; cloned without His-tag; also called REV7^K44A-SHLD3(1–82)^5A; source: E. coli BL21(DE3), co-expressed (pETduet), purified (Ni-IDA, SEC)
The data set can be described thus: ITC; ITC200, 25 °C, 20 mM Tris pH 8.0, 150 mM NaCl, 1% glycerol, 1 mM TCEP; one set of sites model. Conditions: both partners purified.

The next data set deals with T3, REV7^K44A-SHLD3(28-82) (human, UniProt Q9UI95; Q6ZNX1 28-82, K44A).
T3 construct: REV7 (MAD2B, MAD2L2), human, full length; SHLD3, human, residues 28-82; cloned without His-tag; source: E. coli BL21(DE3), co-expressed (pETduet), purified (Ni-IDA, SEC)
Described as above. Conditions: both partners purified.

In data set [3] the target is T4, REV7^K44A-SHLD3(1–82)^F38A (human, UniProt Q9UI95; Q6ZNX1 1-82, K44A | F38A).
T4 construct: REV7 (MAD2B, MAD2L2), human, full length; SHLD3, human, residues 1-82; cloned without His-tag; source: E. coli BL21(DE3), co-expressed (pETduet), purified (Ni-IDA, SEC)
The data set is described as above. The conditions noted are these: both partners purified.

A further data set deals with T5, REV7^K44A-SHLD3(45–82) (human, UniProt Q9UI95; Q6ZNX1 45-82, K44A).
T5 construct: REV7 (MAD2B, MAD2L2), human, full length; SHLD3, human, residues 45-82; cloned without His-tag; source: E. coli BL21(DE3), co-expressed (pETduet), purified (Ni-IDA, SEC)
Described as above. The conditions noted are these: both partners purified.

For data set [4], the target named is T1, REV7^E35A-SHLD3(1–82). Described as above. The conditions noted are these: both partners purified.
A further data set concerns the target T6, REV7^K44A-SHLD3(1–82) (human, UniProt Q9UI95; Q6ZNX1 1-82, K44A).
T6 construct: REV7 (MAD2B, MAD2L2), human, full length; SHLD3, human, residues 1-82; cloned without His-tag; Homogeneous C-REV7-SHLD3(1-82) heterodimer by SEC-MALS; also called K44A-1–82; C-REV7 (as used in the ITC experiments); source: E. coli BL21(DE3), co-expressed (pETduet), purified (Ni-IDA, SEC)
The data set is described as above. Conditions: both partners purified.

The target in a further data set is T7, REV7^K44A-SHLD3(38–82) (human, UniProt Q9UI95; Q6ZNX1 38-82, K44A).
T7 construct: REV7 (MAD2B, MAD2L2), human, full length; SHLD3, human, residues 38-82; cloned without His-tag; source: E. coli BL21(DE3), co-expressed (pETduet), purified (Ni-IDA, SEC)
Described as above. Conditions: both partners purified.

Data set [5] concerns the molecule itself. The data set can be described thus: SEC-MALS; co-expressed and co-purified REV7-SHLD3(1-82) samples; 100 μl at 5 mg/ml, WTC-015S5 column, 20 mM Tris-HCl pH 8.0, 150 mM NaCl, 1% glycerol, 1 mM TCEP, 0.01% NaN3. For orientation: Size exclusion chromatography separates by hydrodynamic size, large species first.

In general, Kd refers to the free concentration of one partner at which half of the binding sites on the other are occupied at equilibrium, for simple one-to-one binding. A lower Kd goes with tighter binding.

T1 sequence (Q9UI95 whole entry E35A, chain 1 of 2): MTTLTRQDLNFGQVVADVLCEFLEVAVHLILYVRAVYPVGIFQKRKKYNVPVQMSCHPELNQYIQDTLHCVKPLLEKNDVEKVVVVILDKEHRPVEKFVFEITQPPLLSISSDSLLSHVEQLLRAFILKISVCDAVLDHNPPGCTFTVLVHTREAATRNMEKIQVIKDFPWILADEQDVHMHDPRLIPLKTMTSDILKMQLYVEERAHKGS
T1 sequence (Q6ZNX1 1-82, chain 2 of 2, further chain): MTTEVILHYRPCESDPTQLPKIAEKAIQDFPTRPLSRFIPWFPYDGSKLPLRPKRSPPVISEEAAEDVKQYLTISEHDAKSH
Sequence of REV7^K44A-SHLD3(28-82) (Q9UI95 whole entry K44A, chain 1 of 2): as the sequence (Q9UI95 whole entry E35A, chain 1 of 2) above, with A35E, K44A counted along it
Sequence of REV7^K44A-SHLD3(28-82) (Q6ZNX1 28-82, chain 2 of 2, further chain): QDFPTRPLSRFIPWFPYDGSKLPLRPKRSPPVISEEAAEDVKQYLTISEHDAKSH
Sequence of REV7^K44A-SHLD3(1–82) (Q9UI95 whole entry K44A, chain 1 of 2): as the sequence (Q9UI95 whole entry E35A, chain 1 of 2) above, with A35E, K44A counted along it
Sequence of REV7^K44A-SHLD3(1–82) (Q6ZNX1 1-82, chain 2 of 2, further chain): as the sequence (Q6ZNX1 1-82, chain 2 of 2, further chain) above
Sequence of REV7^K44A-SHLD3(38–82) (Q9UI95 whole entry K44A, chain 1 of 2): as the sequence (Q9UI95 whole entry E35A, chain 1 of 2) above, with A35E, K44A counted along it
Sequence of REV7^K44A-SHLD3(38–82) (Q6ZNX1 38-82, chain 2 of 2, further chain): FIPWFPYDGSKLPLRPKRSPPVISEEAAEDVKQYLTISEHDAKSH
Sequence of REV7^K44A-SHLD3(45–82) (Q9UI95 whole entry K44A, chain 1 of 2): as the sequence (Q9UI95 whole entry E35A, chain 1 of 2) above, with A35E, K44A counted along it
Sequence of REV7^K44A-SHLD3(45–82) (Q6ZNX1 45-82, chain 2 of 2, further chain): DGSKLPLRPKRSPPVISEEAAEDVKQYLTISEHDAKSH

B1: REV7^K129A (natural protein)
chain: not shown
notes: REV7 (MAD2B, MAD2L2), human, full length; also called O-REV7 (as used in the ITC and SEC experiments); source: E. coli BL21(DE3), purified (Ni-IDA, SEC); alone or co-expressed with SHLD3([…])
For B1, the Kd in the data set with REV7^E35A-SHLD3(1–82) [1] is 60 ± 19 nM; in data set [2], 3300 nM; in the data set with REV7^K44A-SHLD3(28-82) it was 200 nM; in data set [3], 1800 nM; with REV7^K44A-SHLD3(45–82), 4100 nM; in the data set with REV7^E35A-SHLD3(1–82) [4], approximately 280 nM. The Kd in the data set with REV7^K44A-SHLD3(1–82) was approximately 110 nM; with REV7^K44A-SHLD3(38–82) it was 470 nM.

B2: REV7^K129A-REV3([…]) (complex)
chain 1: [about 200 residues not spelt out]
chain 2: MLTPTPDSSPRSTSSPSQSKNGSFTPRTANILKPLMSPPSREEIMATLLDHDLSETIYQE
notes: REV7 (MAD2B, MAD2L2), human, full length; also called represents C-REV7
For the molecule B2, the Kd with REV7^E35A-SHLD3(1–82) [4] stood at 6600 nM.

B3: REV7^Y63A (natural protein)
chain: not shown
notes: REV7 (MAD2B, MAD2L2), human, full length; source: E. coli BL21(DE3), purified (Ni-IDA, SEC); alone or co-expressed with SHLD3([…])
As for B3, the binding result in [5] is reported as “binds”.

B4: REV7^W171A (natural protein)
chain: not shown
notes: as for B3
For the molecule B4, the binding result in data set [5] is recorded as “binds”.

(Values after paper PMC7181697, “Molecular basis for assembly of the shieldin complex and its implications for NHEJ” (Nature Communications, 2020).)
